In the supplement of paper PMC10681739:
± gives the standard deviation of the averaged measurements. In all, about 4,000 sequences were measured (“arbitrary fluorescence units”: median about 830, highest 2% from about 6,500 on). The list lacks most of the strong results.

Each sequence was assayed against RUNX1 (UniProt Q01196) (assay: RUNX1 binding intensity (PBM fluorescence), RUNX1 alone (arbitrary fluorescence units); higher = stronger binding). Settings: RUNX1 concentration 2 nM; ETS1 concentration 0 nM.
Sequence of UniProt Q01196 (Q01196 whole entry): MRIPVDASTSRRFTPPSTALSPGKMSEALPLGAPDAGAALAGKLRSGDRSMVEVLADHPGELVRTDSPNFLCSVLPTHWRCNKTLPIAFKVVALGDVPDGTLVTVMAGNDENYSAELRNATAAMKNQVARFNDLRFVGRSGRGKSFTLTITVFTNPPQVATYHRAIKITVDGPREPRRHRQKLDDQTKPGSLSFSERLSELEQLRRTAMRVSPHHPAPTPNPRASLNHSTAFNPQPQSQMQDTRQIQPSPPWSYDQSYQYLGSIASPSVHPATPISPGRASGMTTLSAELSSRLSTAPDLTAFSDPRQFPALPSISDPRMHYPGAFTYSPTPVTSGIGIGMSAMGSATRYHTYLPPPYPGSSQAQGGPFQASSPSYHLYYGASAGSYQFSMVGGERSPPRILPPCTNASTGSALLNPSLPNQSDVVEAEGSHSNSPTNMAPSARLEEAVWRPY
Description: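 gcPBM on 36-bp genomic-derived probes (partner site mutated) containing one RUNX1 site and no ETS1 site. Recombinant human RUNX1 (2 nM) was incubated alone or with ETS1 (25 nM) and detected by anti-RUNX1 antibody fluorescence. Values are medians over 4 replicate spots (not normalised). The probes sit in constant array flanks that are not printed.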
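Also: Full-length recombinant human RUNX1 bound to double-stranded DNA microarray spots, detected with an Alexa488-labelled secondary antibody after the anti-RUNX1 primary, read as scanned spot fluorescence.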

Sequence | RUNX1 binding intensity
TGCTGCACCGCGACCTCAGCTACTGCCTGCTCAGGT | 739
GGGGTCAGCAAATGGGTGTGCCGCGGGTAAGGCGCT | 682
CTCTGCAGACAGTAAAGCTAGGTGTGGGTGTACTGT | 768
ATATTTTTGATTCCTCCTGTGGTGGCACCTAGCAGC | 1020
ACCAGCTGCGGCTGGGTGCAGCTGAAGGTGTCTACG | 722
ACATGAAGAGATATTATATCTCCCTGCGGTTGGTTT | 965
CCTCTTATACCACACTGTGGGAATCAGCAAGGGTGC | 948
TGAGTTTTGTCTCCGATTCACCACAGAAGATACTTT | 930
TGCAGCTATGGCTGGAAGCCTGTGGGTGTGGGAGGA | 691
GTCGTCCCGAAAACCGGGATGCGGTTATCAGAGCGA | 1350
AGCGGCCGAAGGAATTGACGTTTGCGGCAGTAAGGC | 1230
TATCAGCCTCCGACGTGCCCCGCGGTATCTGGACTA | 837
GGTTTTGCGCCCACAGCCGCCGAAAGTGGCTCCGTG | 770
TCCCTCCTTGCGCTCTGGTTTTGTGGTTGCTTGCTG | 1120
AGACAAAGTGGTTGTAAGCCACCTCCTCCACACCCT | 826
TTCAGGCGGTAAAGAACAGACCTGCAGGAGGAGATA | 723
TGCGATGCCGCAGTGGCTCAGTGCTCCCTGGCCGAG | 673
TACAGCCAGGCAATGGGGAGGGTGCTGCGGGCGGCA | 729
CCCGCGGTGCTCGCCGCTGAGAGCTTTCGGGCCACG | 720
AAGCACTTGTGGTTGGCACCAGCTTTTCATGTGCTC | 1120
TGGGCACGGGAGCAAGAGGCTGGGTGGTAAACAGGA | 743
GCGCAGCCCGTCTCCCCTCTTGGCGGTTGCGAACTT | 847
CTCAAGACCGCTTACGGGAGCCTCTCGGCTTACGTC | 735
AGCTAAACCCAGTGCCGGTGCTGTGGGGAGCTCAGA | 711
AGTTACAGAACCACACTGGGGCCACCTCCTCTCCAG | 899

Sequence | RUNX1 binding intensity
GACCTGGGTTTCATGTCTGTACATCGCGGTTCCTAC | 933
AGCAAAAAGTTCCAGGGAAGCCGAGACCGCGACCTT | 732
GGCGGGCCCTCCCGCAGGCCTTCATGTTTATGCGTC | 755
ATTTACGTTTCAAACCACCCACTTCCAGTTTTTCAG | 1270
GGAAAGGCAGCGGTGGCAGAGGCTGTGCTGGGGGAG | 701
CGGGGCATGTCGGACGCTGTGGTCCTGAAGGCCTGG | 684
TGTAATTTGAGGTTAGCACAACACAGGCAGTCCTGC | 938
ACGTGACCGCGTGGGCGCAGTCCCAGACAGTAAACG | 869
TGCCACATGCTGCCCCTCCCCAGGTCTAACCACCAA | 1090
AGTAGAGGAGGGAGTTAAATGTGGTTTTCTGGGTGG | 845
GCAGAAGGATTTGCTGTTTCAGGCAACCACAGCGAC | 767
AACACCCTGTGTAAAGAGAATTGAATGTGGTTTTCT | 771
TGTGTCAAGCCGCAGGCAGCGATTCTGGACTCTGGG | 777
GCATGGCGGTTCTTGGCGTGCGAACCCCTTCGGCCC | 808
CCGGGACATGAAGAGGCTGGGGACCGCGGCGAAGGT | 760
CTAAGAATCATCGTGTGTAACAACACCCACAGTTAG | 783
AAAAACTACATTGCCCATGAGCACCCACAGGCGTGC | 795
GGCTACCGGCACCCGCAGTGTCCGGCAACGCAGTCC | 685
CACCCGAACTGAAACACCTGCGGCTGAGGGGAGGGG | 1030
GCATGCGGCTTGCTCGGTACTCAGCTGACTTGCTGT | 773
AAGCCCACAGCCCGGCCCCGGCCCCCGTATGTGGGG | 741
CGGGACTGCCTGTCTTCCCTGTTGCGGAGCTCTGAA | 737
GGGGCGGTTACAGAACGGGTAACTCAGAATGATTCA | 856
GGCGTTGTGGGCCGCGGCGCGATTCCCCGGCTCCGT | 709
TCCGCGCGGTCGGCCGCGTTGTAGGGGACGGAGGTG | 770

Sequence | RUNX1 binding intensity
TGATTAGGAAACCACAGACTACCCGGGAATCAACTT | 2710
CAGGAACCGTAAGCCACAGGCCTTCATGCCCAGCCA | 803
TCTGAGATAACCGCTTGGTTCCAGTGTCCCGTTTTG | 859
CGGCAGCTGCACCGCAGGGACATCTCCCGCGAGAGC | 736
CTCCGCGCGGCCGCAGAGACTCCTGGGAATTGTGGA | 769
TCGGGGAAAGACCGCTTCAGGTGCTCCCGTCGCTCC | 782
GGTGAGCGGTGGTGGTTTATTCTTCTGTGGAGTTAA | 1220
ACACCTCAGCAAGTGGCAGAGACCACAACAAGTCAG | 952
CTGCAACCTCAAACCAGCTCCCAGGGCCAGCAAGGT | 900
ACAAAACAAACACCTCCCCCAAACCGCCAAACTACA | 1400
CCGCCCGCAGGGGCTGCCGGAGGCTTTTACTGTTCC | 812
ACTGCCGCAGCCCAGGGGCCCGAGAAGGCAATCGCT | 835
GCGCCGCCCACAGCCGATCGACATGTCCCAGAATCA | 768
GCGCCCCGTCCTTGCGCAGCCCAACCGCCTCTTCCC | 1190
TGTCAGTCTGTGGTTGGGCAGGCAGTGGCTGGGCAG | 1050
CAAAACCACTTGGCAGCTGAGTCAACACCCTGCCTG | 743
TCGGCTCGCGGTGGGAGCGCCTGAAGCCCGCCCCAC | 784
CGAACTACGTCCTCTGAGGTGTGGCTTTTTGGCCTG | 777
CTGGGCCTCCTCTTCAGGCATGCGCGGTGGACCTGC | 662
CTGACAGCCTCCGCACAAAGCGCGGTCTATTTCTCC | 918
AGCGTACGGTCGCGCCGCGCTCTAGCACCGCAGCAC | 798
GCCCCGGTGGTTTTGAACTCCCGCCAACCTCCCTTT | 1170
CGAGGTGACCACTCTCCTCGGCAGCCGCACCTGCCC | 974
ACCACCCCCCGTCTCCTCCGAAGTGGTTGGTGCCTT | 921
GCAAGATCCCGCATTAACATCTCGGGAACGGACAGC | 939

Sequence | RUNX1 binding intensity
TAGGCTGAAAGCCCGCTAGCCTAAACCACAGAGGGT | 798
GTCCTTTCTGTGTGTTACTCTTAAAAACCACAGAGG | 1310
TGGATGGCGGCGGAGACTGCCCATGCCGCAAGGCCG | 658
GTCGGGAGGTAGGCGGGGTGACGTGTGGTTGACGAG | 1020
TCCTGTTTACCACCCAGCCTCTTGCTCCCGTGCCCA | 1410
TCCAGCCCCACCGTAAGTGGATGTGGTTAATCTAGT | 866
GGGCCTAAGCCTGTGGTTAGACTTCATGTCAATGAG | 1190
GTAACTGAAACCACAGCAAGCGGCACTGTAGGTAAG | 1250
TTGTTCGCTGCGGCGACCAGCTCCGAAAAGCGCGGC | 736
GCCACAGCCTGAAGCAGGCTGACCACAAGTGCTAAG | 993
GAAGAGAAAGGCAACGGCTCGCGGTTTCTGGGGTTC | 1050
AGGGAACAGCAAATGCAAAAAACCACAAGGGACAAG | 1520
GCGATCGGAGCGGCAGTGGAGCTACCGCCACCGCCG | 838
CTAGTTTCATGTGGCTGCTATGACAAATGACCACAG | 766
ATGCTCGCAGTAAACCACAGTCATCCAGTTTCTTTA | 1240
TGGAAGCTGCGGCCGCCTCGCACCCTGAACAACAAA | 797
GCCTTGCGCCGTCTGCTAGGCGTGTCGCCGCAGGAG | 720
CCCCCACACCCTGTTTGGTTTGTGGGACACCTCAAC | 895
TTACAATCATGTCCTCTCTGTGGTTTGGTGACAAAT | 1440
CTGTGGTCATTTGTCATAGCAGCCACATGAAACTAG | 780
AGCGCTTGCTGGCTCCGGCCCCGCCCCTGCGGTCGG | 790
TGGGTGCTGCGGGCCAAGCTTTCCCTTCGTTTGAGA | 722
GGCCAGGCGCTGCGGGCAGTCATTGCCTTAGCAACT | 687
TGCCACCTCCGCCATCTTGAAACAACCGCCACTCGG | 1120 ± 28
CCTCTGCCAAAACCACCATCCACTTGCCCACCCAAC | 3380

Sequence | RUNX1 binding intensity
TACTTAGAGGCAATGTGGCCTGTGGTCTTGTCTCAC | 761
AAAAAATGGAGGACGTTACCTCCAGTGGTTTTGTGA | 766
GCAGTCAGGCCCACATTCCTCTTACCTCCCGCCATT | 1270
CATGACCTCCTCGCACAAGAATGCGGGGGTGGGGGT | 1050
GCCGCCGCAGATTCGACACAAAACCCTGAAGGACCC | 962
CGGAGGCGCGGTTTCCAAGCACGGCAACCTTCAGCC | 884
GGGTGCTGCCTATAAACAATGACTCATTACCGCACT | 839
CGTCCTGTGCTGCGGGCTCAGGCGCAACCCTGAACG | 815
ACGGAGCTGTGGTTTAACGTTTCAGGTTAGTGGCTA | 1330
AGGGAAACCACGGAATTTACTGCCGAAAGTTCGGCG | 825
GCTTTGCAGTGTCCTCTGTGGAACACCACACACAGT | 803
AACCCGAAACCCCACAGACCAGCCGGGAGTCCGGTC | 820
GTCCCCTGGAACCGTCTCCTCCCCCGCACGCGCCGC | 911
AACTGGATTGACCACATGGAGGAGATGGGAGGAGGC | 985
GAGCACATTGCCTTTTGCTTCCAGATACCACAGTGA | 945
ACAGACAGCAGCCTGAGCTCGTGGTTAGAACACCCT | 796
GACAAAGCAACCGCCAGGCAGATCCCGGGAGCCGCC | 751
AGGCGCTGTGGGGATGGTGAGGACGCTATCAGGGGC | 701
TGATGTAAACTGGACCAGCCGCTGCGGGCAAAGGAG | 739
CCTACCACTGCGGGCAGCGCTTGCGCTTTCCTCCTC | 1050
GCAGAAACAGAAAGAGACAGGGCTGACCGCAGCAGG | 1360
GGTTCAGCCCCAGCAAGATCAGACCACAGAAGCGGA | 826
TGACGTCATCCCGCAGCGCCGGGAGCGGTGAGGCAC | 752
CACCTCACAGCCTGGATACAAACCGCCTACCCGCCC | 1300
CTGCCTTTGCTGCTAGGGTACAAACCACAGCCTTAG | 1040
